# Measured values from article PMC4336329 (PLoS ONE, 2015).
# The whole screen tested about 310,000 compounds, of which about 2,200 (0.71%) showed an effect of 50% or more. Effects have a minus sign here. Some of the results follow.
# Biological target: human ether-à-go-go-related gene (hERG) potassium channel (human, UniProt Q12809)
# Assay: primary screen, population patch clamp on CHO cells stably expressing hERG
# Chain of human ether-à-go-go-related gene (hERG) potassium channel (Q12809 whole entry, looked up): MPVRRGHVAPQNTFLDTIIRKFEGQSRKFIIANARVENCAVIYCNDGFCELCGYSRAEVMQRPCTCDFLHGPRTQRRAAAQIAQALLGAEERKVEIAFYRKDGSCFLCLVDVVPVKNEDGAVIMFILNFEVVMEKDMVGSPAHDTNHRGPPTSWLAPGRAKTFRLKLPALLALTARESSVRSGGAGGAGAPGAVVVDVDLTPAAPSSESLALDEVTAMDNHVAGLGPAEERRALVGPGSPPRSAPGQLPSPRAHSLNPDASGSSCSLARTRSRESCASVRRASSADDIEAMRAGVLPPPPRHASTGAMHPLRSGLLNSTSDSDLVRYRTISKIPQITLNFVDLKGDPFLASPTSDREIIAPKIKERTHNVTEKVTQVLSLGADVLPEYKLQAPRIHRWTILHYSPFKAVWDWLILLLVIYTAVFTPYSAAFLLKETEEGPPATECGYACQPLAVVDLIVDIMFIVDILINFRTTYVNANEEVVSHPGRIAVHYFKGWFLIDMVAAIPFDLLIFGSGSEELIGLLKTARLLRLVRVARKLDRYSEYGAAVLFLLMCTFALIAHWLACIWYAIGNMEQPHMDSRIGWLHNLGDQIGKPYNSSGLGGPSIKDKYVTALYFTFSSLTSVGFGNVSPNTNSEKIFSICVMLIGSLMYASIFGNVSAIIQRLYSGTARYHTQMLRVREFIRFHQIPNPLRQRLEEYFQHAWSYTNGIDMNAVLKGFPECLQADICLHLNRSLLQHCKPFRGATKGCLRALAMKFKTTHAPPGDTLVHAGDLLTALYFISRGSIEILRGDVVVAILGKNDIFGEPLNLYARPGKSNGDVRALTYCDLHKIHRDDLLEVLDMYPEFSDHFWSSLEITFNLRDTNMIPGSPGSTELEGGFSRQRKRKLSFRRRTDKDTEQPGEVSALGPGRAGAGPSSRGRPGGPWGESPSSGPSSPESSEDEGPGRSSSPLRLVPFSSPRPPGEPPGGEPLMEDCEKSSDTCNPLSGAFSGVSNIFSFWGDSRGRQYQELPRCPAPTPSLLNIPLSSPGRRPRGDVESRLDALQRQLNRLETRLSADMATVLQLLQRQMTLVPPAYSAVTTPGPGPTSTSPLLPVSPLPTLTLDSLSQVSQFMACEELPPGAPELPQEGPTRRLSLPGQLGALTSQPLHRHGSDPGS
row,Compound,"hERG current change (%, negative = inhibition) at 1uM [%]"
1,C/C(=N\OCC(=O)OC(C)C(=O)Nc1ccc(C(N)=O)cc1)c1ccc2c(c1)OCO2 (stereo not shown),5.48
2,CC1c2nc3ccccc3n2C(CC(=O)NCc2ccccn2)C(=O)N1Cc1ccccc1 (stereo not shown),18.2
3,O=C(CC1C(=O)NCCN1Cc1cccc(Oc2ccccc2)c1)NCCCn1cccn1 (stereo not shown),8.61
4,O=C(NC(Cc1cccc(F)c1)C(=O)O)C1CCCCC1 (stereo not shown),12.6
5,C[C@]12CCC(=O)C[C@H]1CC[C@@H]1[C@@H]2CC[C@]2(C)[C@@H](O)CC[C@@H]12,12.5
6,Fc1ccc(N2CCN(C(=S)NCc3ccco3)CC2)cc1,-1.95
7,Nc1cc(=O)[nH]c(SCc2cccc3ccccc23)n1,6.5
8,COc1ccc(NC(=O)c2ccccc2N(Cc2ccccc2)S(C)(=O)=O)cc1,1.68
9,Cc1cc(C)nc(Sc2ncnc3sc4c(c23)CCC4)n1,6.54
10,O=C(COC(=O)c1ccccc1Nc1ccccc1)NCc1ccccc1,8.18
11,Cc1nn(C)cc1C1C(C#N)=C(N)N(c2cccnc2)C2=C1C(=O)CCC2 (stereo not shown),8.34
12,O=C(CSc1nc2ccccc2o1)c1cc2ccccc2oc1=O,1.63
13,CN(CCCNC(=O)c1ccc(/C=N/O)nc1)CCCN(C)Cc1ccccc1,8.9
14,CCN(CC)CCNC(=O)c1cn(CC)c2cc(N3CCN(C)CC3)c(F)cc2c1=O.Cl,-0.98
15,O=C(Nc1cccnc1)OCc1ccccc1,13.8
16,COc1cc(SC)ccc1C(=O)Nc1ncc(Cl)cc1Cl,8.17
17,O=C(NCC1CCCN1S(=O)(=O)c1cccs1)c1ccccc1 (stereo not shown),19.1
18,CC1CCCN(C(=O)c2ccc(Cl)c(S(=O)(=O)N3CCCCCC3)c2)C1 (stereo not shown),-3.22
19,O=S(=O)(Nc1ccccc1F)c1ccc2nsnc2c1,0.886
20,CC1Cc2ccccc2N1C(=O)c1ccc(N2CCCCC2)c([N+](=O)[O-])c1 (stereo not shown),8.82
21,Cc1ccccc1C1NC(c2ccccc2C)C(C)C(=O)C1C (stereo not shown),15
22,O=C1C2CCCN2C(c2ccc(Cl)cc2)N1c1nccs1 (stereo not shown),8.54

row,Compound,"hERG current change (%, negative = inhibition) at 1uM [%]"
1,O=c1[nH]c(=O)n(Cc2ccco2)c2c1C(C(F)(F)F)(C(F)(F)F)N=C(c1ccc(F)cc1)N2,5.4
2,Cc1ccc(C(=O)NC(=S)NCc2cccnc2)cc1C,6.01
3,Cc1ccc(NC(=O)c2sc3ncnc(N4CCN(c5ccccn5)CC4)c3c2C)c(C)c1,-4.13
4,CCOCCCNS(=O)(=O)c1ccc(NC(=O)c2ccc([N+](=O)[O-])cc2Cl)cc1,-8.51
5,COc1cc(C(c2c(O)c3ccccc3oc2=O)c2c(C)n(C)n(-c3ccccc3)c2=O)ccc1O (stereo not shown),4.41
6,Cc1ccc(S(=O)(=O)NCCC(=O)NCCN2CCCCCC2)cc1,4.87
7,CCCc1c(C(=O)OCC)sc(N)c1C#N,14.7
8,Cc1ccc(N(Cc2ccc([N+](=O)[O-])cc2)C(=O)c2ccco2)cc1C,1.7
9,COc1ccccc1N1CCN(C(c2ccc(C)cc2)c2nnnn2C(C)C)CC1 (stereo not shown),2.48
10,COc1ccc(CNC(=O)C2CCN(S(=O)(=O)c3c(C)n[nH]c3C)CC2)cc1,11.4
11,CCCc1cc(-c2n[nH]c(=S)n2Cc2ccccc2)cs1,-16.5
12,CC1(C)O[C@@H]2[C@@H](CO[C@@]3(COS(N)(=O)=O)OC(C)(C)O[C@@H]23)O1,12
13,O=c1cc(O)n(-c2ccccc2)c(=S)[nH]1,21.3
14,CCCC(=O)NC(=S)c1c(C)n(C)n(-c2ccccc2)c1=O,21.8
15,COc1ccc(NC(=O)c2cnn3c(C(F)(F)F)cc(-c4ccco4)nc23)cc1OC,13
16,CC(C)CCn1c(N2CCCC2)nc2c1c(=O)[nH]c(=O)n2C,6.53
17,Nc1c(C(=O)c2cccs2)oc2ccccc12,6.25
18,CC(Oc1cc2oc(=O)c3c(c2cc1Cl)CCC3)C(=O)NCC1CCC(C(=O)O)CC1 (stereo not shown),8.74
19,O=C(CCc1ccc(F)c(F)c1)NC1CCCN(Cc2ccc(Cl)cc2)C1 (stereo not shown),-28.6
20,CCOC(=O)C1=C(CSc2nnnn2C)N(C)C(=O)NC1c1ccccc1 (stereo not shown),7.93
21,CCOC(=O)c1c(CC(C)C)csc1NC(=O)c1ccccc1C(=O)O,1.48
22,Nc1cc(N)nc(SCC(=O)N2CCCCC2)n1,3.13

row,Compound,"hERG current change (%, negative = inhibition) at 1uM [%]"
1,CC(=O)N(c1ccc2oc(=O)sc2c1)S(=O)(=O)c1ccc(C)cc1,11.7
2,CC(=O)Nc1c(C(=O)O)oc2ccc(Cl)cc12,2.84
3,C=CCNc1nc(SCC=C)nc2ccsc12,3.02
4,O=C(CS(=O)(=O)c1ccc(F)cc1)N1CCOCC1,10.6
5,COC(=O)C1=C(C)C(c2ccc(OC)cc2)NC(=O)N1 (stereo not shown),7.34
6,O=C(N/N=C/c1ccco1)c1ccc(NC(=O)C2CC2)cc1,8.38
7,O=C(c1cc(F)ccc1F)C1CCCN(C(=O)CCN2CCCCO2)C1 (stereo not shown),15.8
8,CN(C)c1oc(-c2ccco2)nc1C#N,-2.12
9,CN(C)c1ccc(C(=S)NCc2ccco2)cc1,12.4
10,Cc1cc(NC(=O)CN2CCC(O)(c3cccc(F)c3)CC2)no1,10
11,COc1ccc(C/C(C)=N/NS(=O)(=O)c2ccc(Br)cc2)cc1,9.79
12,O=C(NCC(=O)N(Cc1ccccc1)C(C(=O)NC1CCCC1)c1ccncc1)c1ccco1 (stereo not shown),10.8
13,CN(C)/C(=N\S(=O)(=O)c1ccccc1)c1ccc(Cl)cc1,13.7
14,Cc1cn[nH]c1.Cl,0.646
15,Cc1c(NC(=O)c2c(N)n(-c3ccccc3)c3nc4ccccc4nc23)c(=O)n(-c2ccccc2)n1C,-8.5
16,CC1CCCCC1NC(=O)CN1C(=O)NC(C)(c2cccc(Br)c2)C1=O (stereo not shown),10.1
17,COC1CCN(C(=O)C2CCC(=O)N(C3CCCCCC3)C2)CC1 (stereo not shown),20.5
18,O=C(CSC1=NCCS1)NC(c1ccccc1)c1ccccc1,11.4
19,CN1C(=S)SC(N2OC3C(=O)N(c4ccccc4)C(=O)C3C2c2ccc(Cl)cc2)C1(C)C (stereo not shown),4.69
20,COc1cccc(C(=O)NCCS(=O)(=O)NCC2CCCO2)c1 (stereo not shown),11.3
21,COc1ccc(OC)c(NC(=O)COC(=O)CN(C)S(=O)(=O)c2ccc(C)cc2)c1,2.41
22,O=C(CCNC(=O)Cn1ccc2ccccc2c1=O)NCCN1CCN(c2cccc(Cl)c2)CC1,8.64

row,Compound,"hERG current change (%, negative = inhibition) at 1uM [%]"
1,COc1ccc(NC(=O)c2ccc(S(=O)(=O)N3CC(C)CC(C)C3)cc2)cc1S(N)(=O)=O (stereo not shown),21
2,CN(CC(=O)Nc1cc(S(=O)(=O)N2CCOCC2)ccc1Cl)C1CCS(=O)(=O)C1 (stereo not shown),5.99
3,Cc1cc(C(=O)NNC(=O)CN2C(=O)NC(C)(c3ccccc3)C2=O)c(C)o1 (stereo not shown),14.3
4,CN1C(=O)C(O)(c2sc(N)nc2-c2ccccc2)c2ccccc21 (stereo not shown),11.2
5,Cc1ccc(NCc2nnc(SCC(=O)N3c4ccccc4Sc4ccccc43)o2)c(C)c1,2.96
6,COc1ccccc1NC(=O)CCNS(=O)(=O)c1ccc2c(c1)CC(C)N2C(=O)C1CC1 (stereo not shown),17.2
7,Cc1ccc(-c2c(C(=O)NCc3ccc(F)cc3)oc(=O)c3ccccc23)cc1,4.86
8,Cc1ccc(CNC(=O)CN(C(=O)C2(C)CC(=O)N=C3C=CC=CN32)c2ccccc2)cc1 (stereo not shown),15.9
9,COc1cccc(C2c3[nH]c4ccccc4c3CCN2Cc2cccc(C)n2)c1 (stereo not shown),4.02
10,O=c1[nH]c2cc(Cl)ccc2n(CCNc2ncc(C(F)(F)F)cc2Cl)c1=O,11.2
11,CC(C)(CCl)C(=O)Nc1ccc(OC(F)(F)F)cc1,-9.32
12,O=C(NCCCNC(=O)c1cccnc1)c1ccc(Cl)cc1,13.8
13,CCn1nc(NS(=O)(=O)c2ccc(NC(C)=O)cc2)c2cc3ccc(C)cc3nc21,2.47
14,CCc1ccc(C(=O)N/N=C/c2ccncc2)s1,11.7
15,CC(C)c1ccc[n+](-c2nc([O-])sc2C=O)c1,15.4
16,CCOc1ccc(-c2nc(CN3CCCC(C(=O)N4CCOCC4)C3)c(C)o2)cc1 (stereo not shown),-5.79
17,CCOC(=O)c1cc(CC)sc1NC(=O)CN1CCN(C(=O)c2ccco2)CC1,-3.16
18,Cc1cccc(OC(C)C(=O)Nc2ccccc2C(=O)N2CCCCC2)c1 (stereo not shown),7.13
19,Oc1oc(-c2ccccc2)nc1C=NCc1ccncc1,11.7
20,CCN(CC)S(=O)(=O)c1ccc(Cl)c(C(=O)NCC2CCCO2)c1 (stereo not shown),14.2
21,N#CCC(=O)Nc1ccc(C(=O)OCC(=O)Nc2cccc(C(F)(F)F)c2)cc1,4.82
22,COCc1c(C#N)c(NCc2cc(OC)c(OC)c(OC)c2)nc(C)c1[N+](=O)[O-],-10.4
